{"source": "PubChem BioAssay AID720709", "about": "(National Center for Advancing Translational Sciences (NCATS), 2013)", "note": "In all, about 360,000 compounds went through this assay and about 520 (0.14%) were called active. This list was built around the results that the source calls inconclusive (neither active nor inactive); the mix of calls is not that of the screen. Calls come from the whole dose curve; as a rule, active = well fitted inhibition curve with a large enough effect; inconclusive = small, poorly fitted or top-dose-only effect; inactive = no such curve, though single readings can be large or run the other way. No potency is given beside an inconclusive call; the fits are too rough. Potency is the fitted concentration of half-maximal effect; tags give direction and shape of the fitted curve."}
{"target": "Rap guanine nucleotide exchange factor 3 (Homo sapiens) (UniProt O95398)", "sequence (O95398 whole entry, looked up)": "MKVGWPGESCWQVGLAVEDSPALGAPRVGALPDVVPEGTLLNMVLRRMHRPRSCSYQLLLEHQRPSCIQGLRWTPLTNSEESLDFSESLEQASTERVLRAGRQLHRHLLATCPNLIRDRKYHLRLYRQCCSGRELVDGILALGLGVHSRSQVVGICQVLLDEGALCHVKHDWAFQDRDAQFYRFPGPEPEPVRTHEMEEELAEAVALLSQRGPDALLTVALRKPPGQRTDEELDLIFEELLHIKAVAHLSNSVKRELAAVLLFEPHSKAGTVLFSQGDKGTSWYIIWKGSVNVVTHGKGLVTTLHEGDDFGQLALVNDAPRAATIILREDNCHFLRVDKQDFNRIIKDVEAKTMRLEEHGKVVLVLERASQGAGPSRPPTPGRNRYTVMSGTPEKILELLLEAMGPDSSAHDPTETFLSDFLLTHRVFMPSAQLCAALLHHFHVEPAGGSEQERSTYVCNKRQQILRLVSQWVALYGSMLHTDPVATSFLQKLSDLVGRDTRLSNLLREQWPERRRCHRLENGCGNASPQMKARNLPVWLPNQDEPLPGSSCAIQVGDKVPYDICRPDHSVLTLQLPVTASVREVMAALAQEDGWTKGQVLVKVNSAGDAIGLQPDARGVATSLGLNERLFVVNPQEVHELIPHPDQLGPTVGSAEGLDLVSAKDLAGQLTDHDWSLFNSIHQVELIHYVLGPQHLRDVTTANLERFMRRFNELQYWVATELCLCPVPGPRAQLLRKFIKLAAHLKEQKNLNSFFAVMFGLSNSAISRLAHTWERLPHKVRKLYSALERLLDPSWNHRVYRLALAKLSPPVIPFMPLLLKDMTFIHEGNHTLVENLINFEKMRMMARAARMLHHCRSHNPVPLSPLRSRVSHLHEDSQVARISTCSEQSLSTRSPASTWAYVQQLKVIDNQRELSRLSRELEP", "assay": "qHTS for Antagonist of cAMP-regulated guanine nucleotide exchange factor 3 (EPAC1): primary screen; note: nearly all actives have a fitted effect of over 50% in size", "settings": "EPAC1 GEF assay, Rap1b-BODIPY-GDP exchange fluorescence; series mostly up to 115 µM"}
{"smiles": "O=C1C=C(c2cc3ccccc3s2)CCC1", "Potency": "inconclusive [inhibitor, single point]"}
{"smiles": "Cc1ccsc1C(=O)OC(C)C(=O)NC1CCCCC1C", "note": "(stereo unspecified)", "Potency": "inconclusive [inhibitor, partial curve]"}
{"smiles": "Cc1cc(C)n(C(=O)c2ccc([N+](=O)[O-])cc2Cl)n1", "Potency": "inconclusive [inhibitor, partial curve]"}
{"smiles": "O=C(NCc1cccnc1)/C(=C/c1ccc(-c2cccc(C(F)(F)F)c2)o1)NC(=O)c1ccccc1", "Potency": "inconclusive [inhibitor, full curve, poor fit]"}
{"smiles": "COc1ccc(Cc2nnc(-c3cccc(C)c3)o2)cc1OC", "Potency": "inconclusive [inhibitor, single point]"}
{"smiles": "CC(C)C1(CCNC(=O)c2cccs2)CCOC(C)(C)C1", "note": "(stereo unspecified)", "Potency": "inconclusive [inhibitor, single point]"}
{"smiles": "CC(C)(C)c1ccc(C2=NC(=O)C(CC(=O)O)S2)cc1", "note": "(stereo unspecified)", "Potency": "inactive"}
{"smiles": "COc1ccc(-c2nn(-c3ccccc3)cc2/C=N/Nc2ccc3ccccc3n2)cc1OC", "Potency": "inconclusive [inhibitor, full curve, poor fit]"}
{"smiles": "Cc1ccc(OCC(O)CNC(C)c2ccccc2)cc1C", "note": "(stereo unspecified)", "Potency": "inconclusive [inhibitor, single point]"}
{"smiles": "CC(=O)N(C(C)=O)N1C(=O)c2cccc3c(N4CCOCC4)ccc(c23)C1=O", "Potency": "inconclusive [inhibitor, single point]"}
{"smiles": "Cc1c(O)ccc(NC(=O)/C=C/c2ccccc2)c1C", "Potency": "inconclusive [inhibitor, full curve]"}
{"smiles": "CC(C)(O)C#Cc1ccc(C(=O)NC2CCCCC2)s1", "Potency": "inactive"}
{"smiles": "O=C(O)CC1SC(N/N=C/c2ccc(Br)cc2)NC1=O", "note": "(stereo unspecified)", "Potency": "inconclusive [inhibitor, single point]"}
{"smiles": "Cc1nc2ccc(NC(=O)CCC3CCCC3)cc2s1", "Potency": "inactive"}
{"smiles": "CNc1oc(-c2ccccc2Cl)nc1P(=O)(c1ccccc1)c1ccccc1", "Potency": "inconclusive [inhibitor, full curve, poor fit]"}
{"smiles": "O=C(N/N=C/C(Br)=C/c1ccccc1)c1ccccc1F", "Potency": "inactive"}
{"smiles": "O=C(NC1CCCCCCC1)c1cc(COc2ccc3ncccc3c2)on1", "Potency": "inactive"}
{"smiles": "CCCNC(=O)c1cc(C2CCCCN2C(=O)OCC(C)C)on1", "note": "(stereo unspecified)", "Potency": "inconclusive [inhibitor, partial curve]"}
{"smiles": "CC(C)C(=O)Nc1nnc(COc2ccc(Cl)cc2)s1", "Potency": "inactive"}
{"smiles": "CNc1ccc(Br)cc(C(=O)/C=C/c2ccc(Cl)cc2Cl)c1=O", "Potency": "inconclusive [inhibitor, partial curve]"}
{"smiles": "Cc1ccc2c(c1)sc(C)[n+]2CCCS(=O)(=O)[O-]", "Potency": "inactive"}
{"smiles": "O=C(Nc1cccc(-c2cccc(F)c2)c1)C1CCN(C2CCC2)CC1", "Potency": "inconclusive [inhibitor, full curve, poor fit]"}
{"smiles": "NS(=O)(=O)c1ccc(NC(=O)c2c(Cl)cccc2Cl)cc1", "Potency": "inconclusive [inhibitor, partial curve]"}
{"smiles": "CC(C)CN1CN(Cc2ccccc2)CNC1=S", "Potency": "inconclusive [inhibitor, partial curve]"}
{"smiles": "COc1ccc(C(=O)NC(=S)Nc2ccc3c4c(cccc24)CC3)cc1OC", "Potency": "inconclusive [inhibitor, full curve]"}
{"smiles": "COc1ccc(C(=O)/C=C/c2ccc(OC)c(O)c2)c(F)c1", "Potency": "inconclusive [inhibitor, partial curve]"}
{"smiles": "Cc1cccc(N2C(=O)C(O)=C(C(=O)c3cccs3)C2c2ccc(C(C)C)cc2)n1", "note": "(stereo unspecified)", "Potency": "inconclusive [inhibitor, partial curve]"}
{"smiles": "CCCCCc1ccc(-c2cn(Cc3ccc(C)cc3)nn2)cc1", "Potency": "inactive"}
{"smiles": "CNC(=O)c1ccsc1NC(=O)CN1C(=O)CCC1=O", "Potency": "inconclusive [inhibitor, partial curve]"}
{"smiles": "O=C(CCl)N1N=C(c2ccco2)CC1c1ccco1", "note": "(stereo unspecified)", "Potency": "inconclusive [inhibitor, partial curve]"}
{"smiles": "O=C1CCCC2=C1C(c1ccc(O)c(O)c1)c1c(ccc3ncccc13)N2", "note": "(stereo unspecified)", "Potency": "inconclusive [inhibitor, single point]"}
{"smiles": "COc1ccc2[nH]c(=O)c(CN(Cc3cccs3)Cc3nnnn3C(C)(C)C)cc2c1", "Potency": "inconclusive [inhibitor, single point]"}
{"smiles": "COc1cc(/C=C(\\C#N)c2nc3ccccc3o2)ccc1O", "Potency": "inconclusive [inhibitor, single point]"}
{"smiles": "Cc1onc(-c2ccc(Cl)cc2)c1-c1ccnc(SCC(=O)Nc2cc(Cl)cc(Cl)c2)n1", "Potency": "inconclusive [inhibitor, single point]"}
{"smiles": "Cc1cccc(CN2C(=O)N/C(=C/c3ccc(C)s3)C2=O)c1", "Potency": "inactive"}
{"smiles": "COc1ccc(NC(=O)CSc2nc(NS(=O)(=O)c3ccccc3)cc(=O)[nH]2)cc1", "Potency": "inconclusive [inhibitor, partial curve]"}
{"smiles": "CCOc1ccc(NC2CCCCC2NS(=O)(=O)c2ccccc2)cc1", "note": "(stereo unspecified)", "Potency": "inactive"}
{"smiles": "COc1ccc(NS(=O)(=O)c2ccc3oc(SC)nc3c2)cc1", "Potency": "inconclusive [inhibitor, single point]"}
{"smiles": "COc1cc(/C=C2\\C(=N)N3N=C(S(C)(=O)=O)SC3=NC2=O)ccc1OS(=O)(=O)c1ccc(C)cc1", "Potency": "inconclusive [inhibitor, partial curve]"}
{"smiles": "O=C(COc1cccc2ccccc12)Nc1nc2ccccc2[nH]1", "Potency": "inconclusive [inhibitor, single point]"}
{"smiles": "CC(=O)Nc1ccc(S(=O)(=O)N2CCNC(=O)C2)cc1", "Potency": "inactive"}
{"smiles": "COc1cc(NC(=O)c2cc(S(=O)(=O)N3CCc4ccccc43)cn2C)cc(OC)c1OC", "Potency": "inconclusive [inhibitor, partial curve]"}
{"smiles": "COc1ccccc1C(=O)Nc1ccc2c(c1)CCCN2C(=O)c1cccs1", "Potency": "inconclusive [inhibitor, partial curve]"}
{"smiles": "COc1cc(S(=O)(=O)N2CCN(Cc3ccc4c(c3)OCO4)CC2)c(C)cc1C", "Potency": "inconclusive [inhibitor, partial curve]"}
{"smiles": "COc1cc(C=C2C(=O)C=CC2=O)ccc1O", "Potency": "inconclusive [inhibitor, partial curve, poor fit]"}
{"smiles": "Cc1cccc2c1N(CCOc1ccc(C(C)(C)C)cc1)C(=O)C2=O", "Potency": "inconclusive [inhibitor, full curve]"}
{"smiles": "COc1ccc(C(=O)OCCc2ccc(O)cc2)cc1", "Potency": "inactive"}
{"smiles": "Cc1ccc(C)c(S(=O)(=O)N2CCNCC2)c1", "Potency": "inactive"}
{"smiles": "O=C(CCc1ccccc1)Nc1ccc2ccccc2n1", "Potency": "inactive"}
{"smiles": "COC(=O)c1ccc(NC(=O)Cn2nnc3ccccc32)cc1", "Potency": "inactive"}
{"smiles": "CC1(OC(=O)C2CCCC2)C(=O)C=C2C=C(c3ccsc3)N(CCCCO)C=C2C1=O", "note": "(stereo unspecified)", "Potency": "inactive"}
{"smiles": "O=C(CC1Oc2ccc(Cl)cc2NC1=O)NC1CCCCCC1", "note": "(stereo unspecified)", "Potency": "inconclusive [inhibitor, single point]"}
{"smiles": "N#Cc1c(N)n(-c2ccccc2)c(=O)c2cc([N+](=O)[O-])ccc12", "Potency": "inactive"}
{"smiles": "Cc1ccc(-n2c3nc(=O)[nH]c(=O)c-3cc3cc([N+](=O)[O-])ccc32)cc1C", "Potency": "inconclusive [inhibitor, partial curve, poor fit]"}
{"smiles": "Cc1n[nH]c(=O)nc1N/N=C/c1ccc(O)c([N+](=O)[O-])c1", "Potency": "inconclusive [inhibitor, single point]"}
{"smiles": "O=C(O)c1cncc(Br)c1", "Potency": "inactive"}
{"smiles": "O=C(CNC(=O)c1cccs1)OCc1c(F)cccc1Cl", "Potency": "inactive"}
{"smiles": "CC(O)[C@H]1CC[C@H]2[C@@H]3CC[C@H]4C[C@@H](O)CC[C@]4(C)[C@H]3/C(=N/O)C[C@]12C", "note": "(stereo partly specified)", "Potency": "inactive"}
{"smiles": "Cc1[nH]n(-c2ccc([N+](=O)[O-])cc2)c(=O)c1C=NCCc1c(C)[nH]c2ccccc12", "Potency": "inconclusive [inhibitor, full curve, poor fit]"}
{"smiles": "Cc1[nH]c2ccccc2c1C(C[N+](=O)[O-])c1cccs1", "note": "(stereo unspecified)", "Potency": "inconclusive [inhibitor, single point]"}
{"smiles": "O=C(N/N=C/c1ccc(Cl)cc1)c1ccc2c(c1)OCO2", "Potency": "inconclusive [inhibitor, partial curve]"}
{"smiles": "Cc1ccc(-c2csc(NC(=O)/C=C/c3ccco3)c2C(=O)O)cc1", "Potency": "inconclusive [inhibitor, full curve, poor fit]"}
{"smiles": "COc1ccc(C(=O)N2CCN(C(=O)C3COc4ccccc4O3)CC2)cc1", "note": "(stereo unspecified)", "Potency": "inconclusive [inhibitor, full curve, poor fit]"}
{"smiles": "Cc1c(CCCl)c(Cl)n2c(nc3ccccc32)c1C#N", "Potency": "inconclusive [inhibitor, partial curve]"}
{"smiles": "CCCNC(=O)c1csc2c1CCCCC2", "Potency": "inactive"}
{"smiles": "Cc1ccc(-n2nc3ccc(NC(=O)/C=C/c4ccco4)cc3n2)cc1C", "Potency": "inconclusive [inhibitor, partial curve]"}
{"smiles": "CC(C)(C)C1CCc2c(sc(N)c2C(N)=O)C1", "note": "(stereo unspecified)", "Potency": "inactive"}
{"smiles": "CCN(CC)S(=O)(=O)c1cccc(NC(=O)COC(=O)c2cccs2)c1", "Potency": "inconclusive [inhibitor, partial curve, poor fit]"}
{"smiles": "O=C(CCCCN1CCCCC1)c1ccccc1", "Potency": "inconclusive [inhibitor, partial curve]"}
{"smiles": "Nc1cc(Cl)ccc1CN1C(=O)c2ccccc2C1=O", "Potency": "inactive"}
{"smiles": "Cc1ccc(C)c(N2CCN(C(=O)c3ccc(CS(=O)Cc4ccc(Cl)cc4)o3)CC2)c1", "note": "(stereo unspecified)", "Potency": "inconclusive [inhibitor, full curve]"}
